Measured values taken from publication PMC4336329 (PLoS ONE, 2015).
Out of some 310,000 compounds screened, about 2,200 (0.71%) showed an effect of 50% or more. The effect is printed as a negative number. The list shows a part of the results.

Target: human ether-à-go-go-related gene (hERG) potassium channel (human, UniProt Q12809)
Assay: primary screen, population patch clamp on CHO cells stably expressing hERG

Sequence of human ether-à-go-go-related gene (hERG) potassium channel (Q12809 whole entry, looked up): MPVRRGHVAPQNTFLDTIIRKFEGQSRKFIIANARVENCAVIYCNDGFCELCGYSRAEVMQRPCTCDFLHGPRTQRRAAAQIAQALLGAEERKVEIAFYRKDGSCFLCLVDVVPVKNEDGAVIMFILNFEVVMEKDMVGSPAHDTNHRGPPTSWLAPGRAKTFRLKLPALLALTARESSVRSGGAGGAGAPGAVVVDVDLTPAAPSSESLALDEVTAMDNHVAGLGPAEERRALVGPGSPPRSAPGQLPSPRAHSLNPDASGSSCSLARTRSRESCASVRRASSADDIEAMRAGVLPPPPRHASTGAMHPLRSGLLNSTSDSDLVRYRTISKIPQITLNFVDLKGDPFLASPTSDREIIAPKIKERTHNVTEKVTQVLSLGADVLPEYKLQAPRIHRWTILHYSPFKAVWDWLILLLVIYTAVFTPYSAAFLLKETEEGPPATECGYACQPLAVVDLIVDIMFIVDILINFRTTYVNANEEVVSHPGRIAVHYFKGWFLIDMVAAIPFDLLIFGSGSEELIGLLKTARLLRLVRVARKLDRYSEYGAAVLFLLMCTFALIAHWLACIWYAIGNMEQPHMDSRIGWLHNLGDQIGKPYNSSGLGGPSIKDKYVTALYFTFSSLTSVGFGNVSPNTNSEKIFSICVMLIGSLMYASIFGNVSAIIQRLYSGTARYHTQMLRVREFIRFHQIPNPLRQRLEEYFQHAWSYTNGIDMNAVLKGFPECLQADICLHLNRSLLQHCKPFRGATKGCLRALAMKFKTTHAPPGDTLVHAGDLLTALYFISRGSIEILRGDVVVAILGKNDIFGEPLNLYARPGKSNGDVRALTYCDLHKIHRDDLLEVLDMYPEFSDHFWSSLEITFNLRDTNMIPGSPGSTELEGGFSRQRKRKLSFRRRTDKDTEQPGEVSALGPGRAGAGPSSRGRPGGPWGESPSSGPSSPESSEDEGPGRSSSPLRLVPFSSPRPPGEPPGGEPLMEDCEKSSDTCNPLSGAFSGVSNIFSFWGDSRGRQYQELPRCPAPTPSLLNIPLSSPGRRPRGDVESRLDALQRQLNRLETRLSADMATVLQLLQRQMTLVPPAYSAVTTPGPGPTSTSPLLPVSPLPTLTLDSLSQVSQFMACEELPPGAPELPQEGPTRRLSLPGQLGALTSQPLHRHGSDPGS

SMILES	hERG current change (%, negative = inhibition) at 1uM
COc1ccccc1NC(=O)CSc1nc(O)c(Cc2ccccc2)c(=O)[nH]1	12%
CC1(C)CC(=O)C=C(Nc2ccc(C(=O)O)cc2)C1	13.4%
CCCCc1ccc(NC(=O)CSCc2cc(=O)[nH][nH]2)cc1	1.42%
O=C1NN=C(c2ccccc2)CC1c1c[nH]c2ccccc12 (stereo not shown)	3.34%
Cc1nnc(N2CCOCC2)c2nn(-c3ccccc3)c(C)c12	-6.07%
Nc1c(C(=O)NCc2ccc3c(c2)OCO3)nnn1Cc1ccc(Br)cc1	2.1%
O=C(CCN1C(=O)c2ccccc2C1=O)Nc1ccc(-c2cn3ccsc3n2)cc1	17.9%
Nc1cc(N2CCCCC2)c(Cl)cc1[N+](=O)[O-]	8.09%
CCOC(=O)c1nc(NCc2ccccc2C)c2ccccc2n1	14%
Cc1ccc(-n2ncc3c(=O)[nH]c(SC(C)C)nc32)cc1	-9.17%
Cn1c(N)c(C(=O)COC(=O)CCC2CCCC2)c(=O)n(C)c1=O	-20.9%
COc1cccc(CNC(=O)c2ccc(NC(=O)CC3SC(N4CCCCC4)=NC3=O)cc2)c1 (stereo not shown)	3.95%
O=C(O)c1cccc2c(/C=N/Nc3ccccn3)c[nH]c12	3.15%
COc1ccc(-n2c(Cc3cccn3C)nnc2SCC(=O)Nc2ccccc2C)cc1	-4.46%
CCOc1ccccc1CNC(=O)CN1C(=O)CSc2ccc(S(=O)(=O)N3CCOCC3)cc21	14.1%
CCC(=O)NNc1nc2c(C)cc(C)cc2s1	15.8%
CCOC(=O)C(=O)Nc1nccs1	10.9%
CCN(CC)c1ccc(N)cc1S(=O)(=O)Nc1ccc(OC)cc1	6.69%
CC1CN(C(=O)CSc2nnc(-c3ccncc3)n2-c2ccccc2)CC(C)O1 (stereo not shown)	11.2%
C/C(CCc1ccccc1)=N\NC(=O)COc1ccccc1C	11.2%
C=CCSc1nc(C)cc2c1C(=O)OC2	10.4%
CCc1ccc(CNC(=O)CCn2ccc3cc(S(=O)(=O)N4CCCC4)ccc32)cc1	12.1%
O=C(Nc1nccs1)c1ccccc1N=Cc1ccccc1	-3.37%
Cc1ccc2c(c1)N(C(=O)CCC(=O)N1CCC3(CC1)OCCO3)CC(C)O2 (stereo not shown)	12.4%

SMILES	hERG current change (%, negative = inhibition) at 1uM
O=C(Nc1cccc(C(F)(F)F)c1)NC1CCN(S(=O)(=O)c2ccc(F)cc2)CC1	9.52%
Cc1nn(-c2cc(N3CCCCC3)ccc2N)c(=O)c2ccccc12	1.2%
CC(C)(C)N1NC(=O)Nc2ccccc2C1=O	-5.08%
Cc1nc(C)c(-c2ccccc2)c(=O)[nH]1	12.8%
CCCn1cnc2cc(NCc3ccccc3O)ccc21	10.9%
CSc1ccccc1C(=O)NCc1cccnc1	10%
O=C(COC(=O)c1ccccn1)NCc1cccs1	0.372%
O=C(CN1C(=O)C2CC=CCC2C1=O)NC1=NCCS1 (stereo not shown)	13%
Cc1sc(NC(=O)CSc2nnnn2C)c(C#N)c1C	0.332%
CC(C)CN(CC(C)C)C(=O)CCCC(=O)N(CC(C)C)CC(C)C	0.861%
COc1ccc(/C=C(\NC(=O)c2ccc(Cl)cc2)C(=O)NCC2CCCO2)cc1OC (stereo not shown)	9.19%
CN(/N=C/C=C/c1ccccc1)C1=NS(=O)(=O)c2ccccc21	13.5%
N/C(Cc1ccc([N+](=O)[O-])cc1)=N\OC(=O)c1ccco1	4.4%
COC(=O)c1ccc(COc2cc(C)cc3oc(=O)c4c(c23)CCCC4)o1	17%
CCn1c(SCC(=O)N2CCN(c3ccccc3F)CC2)nnc1-c1ccoc1C	-3.74%
Clc1ccc(C[n+]2cc(-c3ccc(Cl)cc3)n3c2CCC3)cc1.[Cl-]	-12%
O=C(Nc1ccccc1NC(=O)c1c(F)cccc1F)c1c(F)cccc1F	15.9%
COc1ccc(C(=O)OC(C(=O)c2ccccc2)c2ccccc2)cc1 (stereo not shown)	8.4%
Cc1csc(=O)n1CCC(=O)O	4.44%
CCn1cc(SCC(N)=O)c2ccccc21	7.78%
O=C(O)C1CC(=O)N(Cc2cccnc2)C1 (stereo not shown)	10.2%
CCOC(=O)c1cnc2ccccc2c1Nc1cc(C(=O)O)ccc1C	8.05%
Cc1ccc2nccc(C(=O)N3CCCC(Nc4ccc(C)c(C)c4)C3)c2c1 (stereo not shown)	1.96%
COC(CNC(=O)c1ccc2c(c1)ncn2C1CCCCCC1)OC	5.54%

SMILES	hERG current change (%, negative = inhibition) at 1uM
O=C(CSc1ccccc1)Nc1ccc2sccc2c1	11.9%
COc1ccc(C2=NN(C(=O)c3cccs3)C(c3ccccc3OC)C2)cc1OC (stereo not shown)	2.8%
O=C(CCC1CCN(C(=O)c2cncs2)CC1)Nc1ccccc1	13.9%
OCC[C@H]1C[C@@H](O)[C@H](O)[C@@]2(Cc3ccccc3CO2)O1	10.7%
CCC(=O)NC(=S)Nc1ccc(NC(=O)c2ccco2)cc1	20.6%
O=C(NCc1ccco1)c1ccc(CS(=O)(=O)Cc2ccc(F)cc2)o1	3.97%
O=C(Nc1cccc2ccccc12)N1CC=C(c2ccccc2)CC1	12.4%
CCCCCCSc1nsc(NC(=O)CCC)n1	5.02%
COc1ccc(N(CC(=O)N2CCN(c3ccc(Cl)cc3)CC2)S(=O)(=O)c2c(C)noc2C)cc1	5.9%
CCOc1ccc(C(CC(=O)O)NC(=O)COc2ccccc2)cc1OC (stereo not shown)	14.3%
Cc1cc(NC(=O)COC(=O)C2CCC(=O)N2)c([N+](=O)[O-])cc1C (stereo not shown)	18.4%
CC(=O)n1nc(-c2ccc(Cl)cc2)nc1NCc1ccco1	13.5%
O=C(O)c1ccc(/C=N/Nc2ncc(Cl)cc2Cl)cc1	12%
Cc1cc(N2CCOCC2)nc2ccc(NC(=S)NCCC(C)C)cc12	-11.4%
CSCCC(NS(=O)(=O)c1ccc(Cl)cc1)C(=O)OCC(=O)c1c(C)[nH]c2ccccc12 (stereo not shown)	9.1%
CCn1c2ccccc2c2nnc(SCC(=O)OCN3C(=O)c4ccccc4C3=O)nc21	2.4%
CCOC(=O)c1csc(NC(=O)COc2ccc(Cl)cc2Cl)n1	3.46%
O=C(Nc1cccc(Cl)c1)Nc1nnc(-c2ccccc2)o1	11.7%
O=C(O)c1cccc(CN2C(=O)SC(Nc3ccccc3)C2=O)c1 (stereo not shown)	6.58%
C=CCN(C(=O)c1csnn1)C(C(=O)NCc1ccc(F)cc1)c1ccc(F)cc1 (stereo not shown)	1.15%
Cc1ccc(C(=O)Nc2cccnc2)cc1NC(=O)c1ccco1	7.5%
CCCc1cc(C(=O)Nc2cc(OC)c(Cl)cc2OC)no1	20.2%
Cc1ccccc1NCCNc1ccccc1C	3.13%
CCOC(=O)c1cn[nH]c1C(F)(F)F	11.9%

SMILES	hERG current change (%, negative = inhibition) at 1uM
COCCNC(=O)Cn1cnc2c(cnn2-c2ccc(C)cc2)c1=O	-0.31%
O=C(c1ccc(Br)cc1)N(c1ccccn1)C1CCCCC1	5.08%
CCC(=O)N(Cc1ccc(C)cc1)Cc1cc2cc3c(cc2[nH]c1=O)OCO3	0.914%
CSc1cccc(NC(=O)CC(C)n2ccnc2)c1 (stereo not shown)	11.5%
CCc1nnc(NC(=O)c2ccc(NC(=O)C(C)C)cc2)s1	12%
CCOC(=O)C1(Cc2cccc(OC)c2)CCCN(S(=O)(=O)c2cccnc2)C1 (stereo not shown)	-10.1%
COc1cccc(CC2(CO)CCCN(Cc3ccc(CO)o3)C2)c1 (stereo not shown)	-1.35%
O=C(c1ncc[nH]1)c1ccccc1C(=O)N1CCOCC1	7.24%
Cc1cc(NC(=O)C2CCCCC2)nc2c1c(=O)oc1ccccc12	4.97%
CC(CCc1ccccc1)NC(=O)c1ccc(F)cc1 (stereo not shown)	12.2%
COC(=O)c1c(C)[nH]c(C)c1C(C)=O	12.3%
CN(C)C(=O)CSc1n[nH]c(-c2ccco2)n1	6.67%
Cc1nnnn1/C(=C\c1ccccc1)C(=O)OCC(=O)NC1CCCCC1	11%
Cc1ccc(C)c(NNC(=O)C(=O)NNc2cc(C)ccc2C)c1	13.5%
O=C(Nc1ccc(N2CCN(C(=O)c3ccccc3)CC2)cc1)c1ccc2c(c1)OCCO2	10.6%
CCCn1c(=O)c(-c2ccccc2)c(O)c2ccccc21	3.97%
CCc1ccccc1NC(=O)c1nnn(CC(=O)Nc2cccc(C)c2)c1N	3.09%
CCOC(=O)C(C)N1C(=O)S/C(=C\c2ccc(-c3ccccc3C(=O)O)o2)C1=O (stereo not shown)	11.5%
O=C(COC(=O)C1CCC(=O)N1)Nc1cc(Cl)ccc1Cl (stereo not shown)	10.7%
O=C(Nc1c(Cl)ccc2nsnc12)c1ccco1	15.5%
O=S(=O)(NCc1ccc2c(c1)OCO2)c1cccc(S(=O)(=O)N2CCOCC2)c1	23.6%
NNC(=S)NCc1ccccc1	1.14%
